Binding data for one molecule are collected here from PMC10368634.

No constants are given. Whether binding was seen depends on the method and setting. Binding seen in cells or lysates may run through a third protein. Some results given as binding are weak or reduced against the parent protein; the word gives no strength. Sequences can lack the tags named with a protein.

The test has as its target GSTP1 (glutathione S-transferase pi), endogenous (human (endogenous in MCF-7, HeLa, HepG2 and human breast tissue)), P09211. In words: native gel or EMSA + cross-linking; Native-page and cross-linking with 0.03125% glutaraldehyde of GSTP1 bound to lactate (Fig. S1E, S1F). The conditions noted are these: remark: other sources report otherwise. For orientation: Mobility shift assays separate free from complexed probe on a gel.

B1: GSTP1 (glutathione S-transferase pi), endogenous, P09211 1-210 (enzyme)
chain: MPPYTVVYFPVRGRCAALRMLLADQGQSWKEEVVTVETWQEGSLKASCLYGQLPKFQDGDLTLYQSNTILRHLGRTLGLYGKDQQEAALVDMVNDGVEDLRCKYISLIYTNYEAGKDDYVKALPGQLKPFETLLSQNQGGKTFIVGDQISFADYNLLDLLLIHEVLAPGCLDAFPLLSAYVGRLSARPKLKAFLASPEYVNLPINGNGKQ
As to B1, the binding result was “binds”.
